# Reference: ChEMBL document CHEMBL4888484, “Replenishing the malaria drug discovery pipeline: Screening and hit evaluation of the MMV Hit Generation Library 1 (HGL1) against asexual blood stage Plasmodium falciparum ,using a nano luciferase reporter read-out” (2022)
# Screen size: about 150,000 compounds; about 540 (0.36%) showed an effect of 50% or more. Some of the results follow.
# System: Plasmodium falciparum
# Experiment: Primary screen in NF54 nanoGlo assay, in single point, at 2uM, 72h; a lower Z score goes with more inhibition
# Type: functional, Erythrocyte
# Conditions: timepoint 72 hour
Structure (SMILES),% Inhibition [%],Z score
COCCOCCS(=O)(=O)Nc1cccc(CO)c1Cl,1,-0.25
COc1cc2c(cc1OC)/C(=N/c1ccc(Br)cc1)NC1(CCCC1)C2,-2,0.25
c1cn2c(CNc3ccc4[nH]ncc4c3)cnc2cn1,-12,1.33
CNC(=O)c1ccc(N[C@H]2CCCc3cc(OC(F)F)ccc32)nn1,-10,1.1
CCNC(=O)CNC(=O)N[C@@H](CC)c1ccccc1Br,-6,0.57
C[C@]1(C(=O)O)CCN(C(=O)Cc2cccs2)C1,-14,1.99
O=C(NC1CCCCCC1)[C@@H]1CCN(c2ccccc2)C1=O,-11,1.1
CCC(CC)CN(CC)C(=O)C(C)(C)S(=O)(=O)C1CC1,-25,2.95
O=C(NC1CC1)C1CCCN(CC(O)c2cc(F)ccc2F)C1 (stereo not drawn),7,-1.02
CC(C)C(=O)N1CCC(CCOCc2cccc(F)c2)CC1,-12,2.25
CCOC(=O)N1CCc2c(sc(NC(=O)c3cc(C)n(CC)n3)c2C(N)=O)C1,-1,0.2
COc1ccc(Cl)cc1C(=O)N1CC(n2nccn2)C1,-6,1.09
CS(=O)(=O)c1ccccc1C(=O)N1CCC([C@H]2CCOC2)CC1,-16,2.11
Cc1ccc(-c2c(C)n(C)c(=O)n(C)c2=O)o1,-16,2.08
O=C(c1ccncc1Cl)N1CCC2(CCCCC2)C1,3,-0.34
O=C(c1n[nH]c2ccccc12)N1CCC(COc2ccccn2)CC1,2,-0.34
C#CCOCC(O)CN(Cc1cccc(C)c1)C(C)CC (stereo not drawn),-8,1.46
COc1nccc(NCc2cccnc2Oc2ccc(F)cc2F)c1C#N,-7,0.78
CC(=O)c1cccc(NC(=O)C2CCN(c3cc(C4CC4)ncn3)CC2)c1,1,-0.21
COc1ccc(NS(=O)(=O)c2ccc(N3CCCC3)c(NS(=O)(=O)c3ccc(Cl)cc3)c2)cc1,-11,1.76
Cc1ccc(C(=O)Nc2ccc3c(c2)cc(C(=O)Nc2ccccc2)n3Cc2cccc(F)c2)cc1,1,-0.13

Structure (SMILES),% Inhibition [%],Z score
CCNC(=O)c1ccc(N(C)C[C@H](C)O)nc1,-7,1.38
CC[C@H](NCCN1C(=O)CNC1=O)c1cccc(Cl)c1F,-21,2.7
COc1ccc(Cc2noc([C@@H]3CN(C(C)=O)CCO3)n2)c(F)c1,-2,0.28
Cc1c(Cl)cccc1S(=O)(=O)N1CC2(COC(C)(C)OC2)C1,-10,1.49
FC(F)(F)c1cnccc1N1CC[C@H](c2cnccn2)C1,-13,1.64
COCCNC(=O)c1ccc(Nc2c(Oc3ccc4c(c3)OCO4)cnn(-c3ccccc3)c2=O)cc1,-17,1.68
CCn1nc(C(=O)NCc2ccncc2)c2c1CC[C@H](NC1Cc3ccccc3C1)C2,-9,0.99
O=c1c2ccnn2ccn1CC1CCOCC1,1,-0.23
CC1COCCC1CNC(=O)NC(C)C1CCC(F)(F)CC1 (stereo not drawn),-6,0.79
CCOc1ccc(C(=O)N/C(=N/c2ccc3c(c2)OCCO3)NCCN2CCOCC2)cc1,-22,2.03
CC1CCN(C(=O)c2cnn3ccc(C4CCN(C(=O)Nc5cccc(F)c5)CC4)cc23)CC1,-11,1.26
Cc1nn(C)c(C)c1CCN(C)C(=O)[C@H]1CCC[C@H]1NC(=O)c1ccncc1,-8,1.09
Cc1ccc(-n2cnc3c2CCN(C(=O)C(=O)Nc2c4c(nn2C)CCCC4)C3)cc1,-13,1.99
O=C1COc2ccc(S(=O)(=O)N3CCC(C(=O)N[C@H]4CCCc5ccccc54)CC3)cc2N1,-6,1.24
Cc1cnc(CN2CCN(Cc3ncc(C)o3)[C@H](C(=O)N(C)C)C2)o1,8,-0.83
Cn1ccnc1C(=O)[C@H](C#N)c1ccccn1,-10,1.64
Cn1nccc1S(=O)(=O)N1CC(=O)Nc2c(F)cccc21,0,0.04
C[C@@H](Cn1cnnc1)NC(=O)c1ccn(CCc2ccccc2)n1,2,-0.24
O=C(c1ccccn1)[C@H]1CCCN(C(=O)NCCc2noc(C3CC3)n2)C1,-13,2.43
COC1CCC(NC(=O)Nc2cc(F)ccc2OC(F)F)C1 (stereo not drawn),-16,1.65
COc1cc(C(F)(F)F)ccc1C(=O)Nc1cccc(/C=C/c2ccncc2)c1,19,-2.39

Structure (SMILES),% Inhibition [%],Z score
CC(Cn1cccn1)NC(=O)N1CCCC1c1cccs1 (stereo not drawn),-7,1.39
Cc1ccc(-c2noc(C3CC3)n2)cc1S(=O)(=O)NCC(=O)N1CCCC1,-5,0.54
COc1ccc(NC(=O)N[C@@H]2C=C[C@@H](c3c(C)nn(-c4ccc(C(C)C)cc4)c3C)C2)cc1,-3,0.41
O=C(c1n[nH]c(=O)c2ccccc12)N1CCC[C@H](c2nc3ccccc3s2)C1,22,-2.6
O=C(CN1CCCC1Cn1cncn1)N1CCOC2CCCCC21 (stereo not drawn),-5,0.47
CCCC(=O)N1CCC(C(=O)N2CCCC2)CC1,-16,2.23
O=S(=O)(Cc1ccn[nH]1)c1ccc(C2CCCCC2)cc1,-4,0.53
CC1CCN(C[C@H](O)CN2CCCc3ccccc3C2)CC1,-1,0.19
c1ccc(-c2nn(-c3ccccc3)c(-c3ccccc3)c3cccc2-3)cc1,-35,4.11
Cn1ccnc1-c1cn([C@H]2CCCCNC2=O)nn1,0,-0.06
Cc1ccc(CNC(=O)[C@]2(C)CN(S(C)(=O)=O)CC(=O)N2c2cc(Cl)ccc2C)cc1,-3,0.57
Cc1oc2c(c1C(=O)N1C[C@H](C(=O)O)[C@@H](c3ccc(F)cc3)C1)C(=O)CCC2,1,-0.22
NC(=O)[C@@H]1C[C@@H](O)CN1C(=O)CC1CC2CCC1C2 (stereo partly drawn),-16,1.82
CC(NC(=O)OC(C)(C)C)C1CN(Cc2ccco2)CCO1 (stereo not drawn),-11,1.39
Cc1ccc(C(=O)N2CCOC3CCCCC32)c(=O)[nH]1 (stereo not drawn),3,-0.49
CCCCNC(=O)[C@@H]1CCCC[C@@H]1C(=O)NCc1cc(C)on1,-8,1.31
CN(Cc1csc(-c2cccs2)n1)C(=O)[C@H]1CCOC1,-15,1.91
NC(=O)c1ccc(NCC(=O)N2CCC(Cc3ccccc3)CC2)cc1F,8,-1.37
O=C1CC2(CCN(C(=O)CCS(=O)(=O)c3ccccc3)CC2)CN1,-6,0.61
Cc1cc(NC(=O)[C@]23CCC[C@H]2OCC3)cnc1C,-13,1.32
CN1C[C@@H](COC(=O)CCc2ccccc2)CC1=O,-5,0.54

Structure (SMILES),% Inhibition [%],Z score
CCCN1C(=O)COc2cc(-c3noc(C(=O)NCc4cc(OC)ccc4OC)n3)ccc21,-9,1.59
Cc1cnc(C2CN(C(=O)[C@@H]3CCCO3)C2)n1Cc1cccnc1,-2,0.31
C[C@H](O)CC(C)(C)CNS(=O)(=O)c1c(F)cc(C#N)cc1F,-18,1.82
C[C@@H]1Oc2ccc(NC(=O)c3ccc(Cl)c(Cl)c3)cc2CN(Cc2ccccc2F)C1=O,-4,0.6
CCn1ncc(C#N)c1NS(=O)(=O)Cc1ccc(C)c(F)c1,1,-0.19
Cn1ncc(NC(=O)c2ccoc2C2CC2)c1Cl,15,-1.94
Cc1cc(C(=O)N[C@H](c2ccc(Cl)cc2)c2ccn(C)n2)c(C)o1,-10,0.89
Cc1nnc(-c2cc(C(C)C)n(-c3ccc(C(=O)N[C@H]4CCc5ccccc54)cc3)n2)o1,-2,0.4
CC(NC(=O)c1cnccn1)C1CC2CCC1C2 (stereo not drawn),-5,0.89
N#Cc1ccc(NCCc2nnc3ccccn23)nc1,-11,1.42
COc1cccc(NC(=O)c2cccn3c(-c4ccccc4F)nnc23)c1,6,-0.94
Cc1noc(-c2ccc(S(=O)(=O)NCCc3ncc[nH]3)o2)c1C,7,-0.95
C[C@@H](c1cc2ccccc2[nH]1)N(C)C(=O)CCN1CCCCO1,-4,0.49
COCCN(CCOC)CC(=O)N1CCCC[C@@H]1C,0,0.06
Cc1cc(C)c2c(C(=O)N3CCCC3)cc(-c3cnn(C(C)C)c3)nc2c1,8,-1
COc1ccc(-c2noc(-c3cc4n(n3)CCCC4=O)n2)cc1,-6,0.79
O=C(Nc1cccnc1)N1CCC[C@H]1c1ccc2c(c1)OCCCO2,-11,1.2
CCn1c(C)ccc(C(=O)NCCc2ccc(S(N)(=O)=O)cc2)c1=O,-8,1.16
O=C(NCc1ccco1)c1cscn1,-13,1.73
CN(CC(O)c1ccccc1)C(=O)CC1(c2ccccc2)CC(=O)N(Cc2ccncc2)C1=O (stereo not drawn),-7,1.29
C[C@@H](CN1CC(c2nc3ccccc3[nH]2)C1)C(F)(F)F,-3,0.51
